Results on 58 molecules are retold here after publication PMC4336329 (PLoS ONE, 2015).

About 14,000 (4.5%) of roughly 310,000 compounds showed an effect of 50% or more. Effects have a minus sign here. Some of the results follow.
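Further: peak tail current of the secondary pulse compared with the same well before compound.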

Chain of human ether-à-go-go-related gene (hERG) potassium channel (Q12809 whole entry, looked up): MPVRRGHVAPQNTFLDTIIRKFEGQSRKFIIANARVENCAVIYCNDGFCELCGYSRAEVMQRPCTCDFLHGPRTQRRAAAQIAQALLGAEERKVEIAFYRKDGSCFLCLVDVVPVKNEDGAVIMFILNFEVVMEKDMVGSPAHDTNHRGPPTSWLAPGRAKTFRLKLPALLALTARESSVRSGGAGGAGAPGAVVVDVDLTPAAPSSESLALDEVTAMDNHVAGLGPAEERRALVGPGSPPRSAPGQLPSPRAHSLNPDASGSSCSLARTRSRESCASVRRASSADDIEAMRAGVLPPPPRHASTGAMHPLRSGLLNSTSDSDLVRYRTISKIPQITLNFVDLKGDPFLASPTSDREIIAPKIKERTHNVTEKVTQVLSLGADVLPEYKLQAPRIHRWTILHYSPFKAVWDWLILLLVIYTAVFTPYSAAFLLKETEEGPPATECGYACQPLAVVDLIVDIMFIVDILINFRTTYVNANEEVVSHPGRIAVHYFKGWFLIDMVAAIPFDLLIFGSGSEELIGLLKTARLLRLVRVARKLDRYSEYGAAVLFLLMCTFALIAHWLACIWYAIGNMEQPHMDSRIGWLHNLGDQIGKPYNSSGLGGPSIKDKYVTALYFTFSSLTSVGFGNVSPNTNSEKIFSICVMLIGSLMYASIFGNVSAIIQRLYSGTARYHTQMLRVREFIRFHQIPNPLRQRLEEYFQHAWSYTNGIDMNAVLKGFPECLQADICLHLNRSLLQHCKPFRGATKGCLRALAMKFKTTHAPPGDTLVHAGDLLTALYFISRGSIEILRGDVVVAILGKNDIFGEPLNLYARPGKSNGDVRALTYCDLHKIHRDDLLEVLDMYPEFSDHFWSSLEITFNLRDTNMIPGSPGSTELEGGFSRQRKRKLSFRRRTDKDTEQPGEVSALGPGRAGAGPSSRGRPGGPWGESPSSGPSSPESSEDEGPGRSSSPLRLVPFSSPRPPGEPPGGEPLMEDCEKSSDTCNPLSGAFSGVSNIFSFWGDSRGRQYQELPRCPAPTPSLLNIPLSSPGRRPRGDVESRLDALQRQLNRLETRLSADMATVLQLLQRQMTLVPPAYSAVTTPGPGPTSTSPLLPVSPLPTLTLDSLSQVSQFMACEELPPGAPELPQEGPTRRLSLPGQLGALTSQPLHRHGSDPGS

The experiment has as its target human ether-à-go-go-related gene (hERG) potassium channel (human, UniProt Q12809). Briefly: primary screen, population patch clamp on CHO cells stably expressing hERG.
On to `COc1ccc(C(=O)/C=C/Nc2ccc([N+](=O)[O-])cc2C)c(OC)c1`, for which the “hERG current change (%, negative = inhibition) at 10uM” value is given as 3.07%.

Take `Cc1cc2c(cc1S(=O)(=O)N1CCCC1)n(C)c(=O)c(=O)n2C`: the “hERG current change (%, negative = inhibition) at 10uM” value is given as -4.62%.

Regarding `COC(=O)c1c(NC(=O)C(Cl)Cl)sc2c1C(C(=O)OC)CC2` (stereo not shown), the “hERG current change (%, negative = inhibition) at 10uM” value is -0.381%.

Consider `COc1ccc(N(CC(=O)Nc2cccc(SC)c2)S(C)(=O)=O)cc1`, for which the “hERG current change (%, negative = inhibition) at 10uM” value is on record as -12.5%.

Turning to `Cc1cc(NC(=O)C23CC4CC(C2)CC(n2cnc([N+](=O)[O-])n2)(C4)C3)no1`, the “hERG current change (%, negative = inhibition) at 10uM” value is -32.4%.

For the molecule `CCOP(=O)(c1ccc(N(C)C)cc1)C(O)c1ccccc1` (stereo not shown), the “hERG current change (%, negative = inhibition) at 10uM” value was 10.3%.

As to `CCOc1ccc(C(=O)Nc2ccccc2N2CCOCC2)cc1`, the “hERG current change (%, negative = inhibition) at 10uM” value is reported as -5.52%.

With `Nc1nc(Cl)cc(N2CCCC2)n1`, the “hERG current change (%, negative = inhibition) at 10uM” value was -3.85%.

As to `COc1ccccc1CN1CCNC(=O)C1CC(=O)NCCc1cnccn1` (stereo not shown), the “hERG current change (%, negative = inhibition) at 10uM” value worked out at 16%.

`CCOc1ccc2nc(NS(=O)(=O)c3ccc4c(c3)n(C)c(=O)n4C)sc2c1`: the “hERG current change (%, negative = inhibition) at 10uM” value amounted to 18.5%.

`COc1ccc(Nc2ncc3c(n2)CC(c2ccccc2)CC3=O)cc1` (stereo not shown): the “hERG current change (%, negative = inhibition) at 10uM” value was -29.6%.

With `COC(=O)CCSC(=S)N1CCOCC1`, the “hERG current change (%, negative = inhibition) at 10uM” value is on record as 7.23%.

Take `COCCC1CCCCN1C(=O)c1ccc(OC)c(OC2CCN(C(C)=O)CC2)c1` (stereo not shown): the “hERG current change (%, negative = inhibition) at 10uM” value amounted to 6.34%.

`Cc1nn(C/C(C#N)=N\O)c(C)[n+]1N.[Cl-]`: the “hERG current change (%, negative = inhibition) at 10uM” value came to 14.2%.

As to `CCSc1nc2c(c(=O)[nH]c(=O)n2C)n1Cc1ccc(Cl)cc1`, the “hERG current change (%, negative = inhibition) at 10uM” value is on record as -2.15%.

On to `COC(=O)CSC1=C(C#N)C(c2sccc2C)CC(=O)N1` (stereo not shown), for which the “hERG current change (%, negative = inhibition) at 10uM” value is given as -0.133%.

Regarding `C=C(C)Cn1c(SCC(=O)NCc2ccco2)nc2sc3c(c2c1=O)CCC3`, the “hERG current change (%, negative = inhibition) at 10uM” value was -3.97%.

With `Cc1cc(O)ccc1-c1cnc2ccccc2n1`, the “hERG current change (%, negative = inhibition) at 10uM” value is 2.9%.

`CCOC(=O)C1(Cc2ccccc2)CCN(Cc2cccn2-c2nccs2)CC1`: the “hERG current change (%, negative = inhibition) at 10uM” value is -82%.

For `COc1ccccc1OCCNC(=O)/C=C/c1ccc([N+](=O)[O-])cc1`, the “hERG current change (%, negative = inhibition) at 10uM” value is -49.2%.

On to `Cn1cc(/C=C(\C#N)C(=O)Nc2ncc(Cc3cccc(Cl)c3)s2)c2ccccc21`, for which the “hERG current change (%, negative = inhibition) at 10uM” value is 3.31%.

As to `COc1cccc(OC)c1OCCCCc1c(C)n[nH]c1C.Cl`, the “hERG current change (%, negative = inhibition) at 10uM” value is recorded as -10.7%.

Consider `O=C(CCC1CCCCC1)NCc1cccnc1`, for which the “hERG current change (%, negative = inhibition) at 10uM” value is on record as 4.37%.

`CC[N+](CC)(CC)CC.[Cl-]`: the “hERG current change (%, negative = inhibition) at 10uM” value was 0.107%.

For the molecule `Cc1cc(C(=O)N/N=C/c2ccc(-c3cccc([N+](=O)[O-])c3)o2)n[nH]1`, the “hERG current change (%, negative = inhibition) at 10uM” value was determined as 5.63%.

For `COc1cccc(/C=N/NC(=O)c2ccc(=O)n(C)c2)c1O`, the “hERG current change (%, negative = inhibition) at 10uM” value stood at 16.6%.

Turning to `C=CCn1c(SCC(=O)c2cccs2)nc2sc(C)c(C)c2c1=O`, the “hERG current change (%, negative = inhibition) at 10uM” value is listed as 3.1%.

With `COc1ccc(-c2ccc(-c3noc(C(C)C)n3)c(OC)n2)cc1`, the “hERG current change (%, negative = inhibition) at 10uM” value is listed as 9.26%.

With `CCOC(=O)C1(CC2CCCCO2)CCN(S(=O)(=O)c2ccsc2)CC1` (stereo not shown), the “hERG current change (%, negative = inhibition) at 10uM” value was -14.4%.

For `Cc1cccc(C(=O)O/N=C2/CC3CCC2(C)C3(C)C)c1` (stereo not shown), the “hERG current change (%, negative = inhibition) at 10uM” value is -11%.

On to `O=C(NN1C(=O)c2ccccc2C1=O)C1CC2CCC1C2` (stereo not shown), for which the “hERG current change (%, negative = inhibition) at 10uM” value turned out to be 11.5%.

On to `CSCc1ccc(C(=O)N2CCC(CCC(=O)N(C)Cc3ccccc3)CC2)o1`, for which the “hERG current change (%, negative = inhibition) at 10uM” value is given as -50.7%.

For the molecule `COc1cccc(-c2cc3nc4c(c(N5CCC6(CC5)OCCO6)n3n2)CCCC4)c1`, the “hERG current change (%, negative = inhibition) at 10uM” value is 5.22%.

Turning to `CC(=O)Nc1ccc(N2C(=O)CSC2c2cccc([N+](=O)[O-])c2)cc1` (stereo not shown), the “hERG current change (%, negative = inhibition) at 10uM” value is on record as 15.6%.

For `CCOc1ccccc1N1CCN(S(=O)(=O)c2ccc(Cl)s2)CC1`, the “hERG current change (%, negative = inhibition) at 10uM” value is 3.83%.

For `CN1CCN(/N=C/c2ccc(-c3ccc([N+](=O)[O-])cc3)o2)CC1`, the “hERG current change (%, negative = inhibition) at 10uM” value is listed as -66%.

Consider `Cc1ccc2nc(-c3ccccn3)c(Nc3ccccc3C)n2c1`, for which the “hERG current change (%, negative = inhibition) at 10uM” value was -15.7%.

`C=CCOc1c(CNc2nccs2)cccc1OCC`: the “hERG current change (%, negative = inhibition) at 10uM” value is 3.58%.

As for `Cc1cccc(Oc2ncnc3onc(C)c23)c1`, the “hERG current change (%, negative = inhibition) at 10uM” value came out at 1.17%.

`COCCCNC(=O)CSc1ccc(Cl)cc1`: the “hERG current change (%, negative = inhibition) at 10uM” value turned out to be 2.32%.

Consider `COc1ccccc1C(=O)OCC(=O)NC(C)CCc1ccccc1` (stereo not shown), for which the “hERG current change (%, negative = inhibition) at 10uM” value was -1.84%.

Take `COc1ccccc1N(C)S(=O)(=O)c1ccc(C(=O)OCC(=O)NCc2cccs2)cc1`: the “hERG current change (%, negative = inhibition) at 10uM” value came to 5.35%.

As for `COc1ccc(OC)c2nc(-c3ccc4c(c3)OCO4)ccc12`, the “hERG current change (%, negative = inhibition) at 10uM” value turned out to be 10.4%.

For the molecule `CC1(C)SC(=S)N(Cc2ccc3c(c2)OCO3)C1N(O)C(=O)NC1CCCCC1` (stereo not shown), the “hERG current change (%, negative = inhibition) at 10uM” value was determined as 10.4%.

Regarding `CCOC(=O)c1c(-c2cccc(C)c2)csc1NC(=O)C1CC=CCC1C(=O)O` (stereo not shown), the “hERG current change (%, negative = inhibition) at 10uM” value was -20.9%.

Take `Cc1ccc(NC(=O)Cc2nnc(SCC(=O)Nc3nncs3)n2C)c(C)c1`: the “hERG current change (%, negative = inhibition) at 10uM” value came out at 20.9%.

Consider `Cc1c(/C(O)=C2/C(=O)C(=O)N(CCN3CCOCC3)C2c2cccnc2)cnn1-c1ccccc1` (stereo not shown), for which the “hERG current change (%, negative = inhibition) at 10uM” value is reported as 20.9%.

As for `Cc1ccnc(Nc2nc(-c3ccc(O)cc3)cs2)c1`, the “hERG current change (%, negative = inhibition) at 10uM” value is 20.6%.

Take `O=C(Nc1ccccc1-c1ccccc1)C1CCCN(c2ncccn2)C1` (stereo not shown): the “hERG current change (%, negative = inhibition) at 10uM” value was 16.9%.

`O=c1[nH]c(CSc2nnc(Cc3ccccc3)o2)nc2ccccc12`: the “hERG current change (%, negative = inhibition) at 10uM” value is -6.55%.

Regarding `CC12CN(C(=S)Nc3ccccc3)CC(C)(CN(C(=S)Nc3ccccc3)C1)C2=O`, the “hERG current change (%, negative = inhibition) at 10uM” value worked out at 10.3%.

On to `CCC(Oc1ccccc1)C(=O)NCCOC` (stereo not shown), for which the “hERG current change (%, negative = inhibition) at 10uM” value is reported as -8.48%.

Consider `CC1CCN(C(=O)CN2C(=O)c3cccc4cccc(c34)C2=O)CC1`, for which the “hERG current change (%, negative = inhibition) at 10uM” value was 2.37%.

Consider `Cc1ccc(C(=O)O/N=C\c2ccc(N3CCOCC3)c([N+](=O)[O-])c2)cc1`, for which the “hERG current change (%, negative = inhibition) at 10uM” value came out at 14.2%.

`CCOP(=O)(OCC)C(NC(=O)Nc1cccc(Cl)c1)C(N)=O` (stereo not shown): the “hERG current change (%, negative = inhibition) at 10uM” value was determined as 8.47%.

Take `COc1cc(C(c2c(C)[nH][nH]c2=O)c2c(C)[nH][nH]c2=O)ccc1OCc1ccc([N+](=O)[O-])cc1`: the “hERG current change (%, negative = inhibition) at 10uM” value stood at 8.76%.

With `CCCn1ncc2c(Nc3ccc(C)c(C)c3)ncnc21`, the “hERG current change (%, negative = inhibition) at 10uM” value is reported as -25.2%.

Take `Cc1nn(C)c(C)c1S(=O)(=O)N1CCC(CO)(Cc2ccc(Cl)cc2)CC1`: the “hERG current change (%, negative = inhibition) at 10uM” value is given as -3.56%.
